Measurements taken from the supplement of paper PMC8728848.
Some of the results follow.

What was measured:
Assay in all cases: glycan array binding signal (z-score within array); higher = stronger binding
Conditions in all cases: glycan notation: IUPAC condensed, linker removed
[1] = biological target: GlcNAc(b1-3)Gal(b1-4)GlcNAc(b1-3)Gal(b1-4)GlcNAc(b1-3)GalNAc
Outline: (§1)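 Arrays were curated from the Consortium for Functional Glycomics database, 3228 in total, and kept only where the protein sequence was available. Binding is expressed as a within-array Z-score. This score was averaged across arrays of the same protein sequence at different concentrations or buffers and across linkers, and negative values can be read as non-binding.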

[2] = biological target: GlcNAc(b1-3)Gal(b1-4)GlcNAc(b1-3)GalNAc
Outline: as §1

[3] = biological target: GlcNAc(b1-3)Gal(b1-4)GlcNAc(b1-3)[GlcNAc(b1-3)Gal(b1-4)GlcNAc(b1-3)]GalNAc
Outline: as §1

[4] = biological target: GlcNAc(b1-3)Gal(b1-4)GlcNAc(b1-6)[Gal(b1-3)]GalNAc
Outline: as §1

[5] = biological target: GlcNAc(b1-3)Gal(b1-4)GlcNAc(b1-6)[GlcNAc(b1-3)Gal(b1-3)]GalNAc
Outline: as §1

[6] = biological target: GlcNAc(b1-3)Gal(b1-4)GlcNAc(b1-6)[GlcNAc(b1-3)]Gal(b1-4)GlcNAc
Outline: as §1

[7] = biological target: GlcNAc(b1-3)GalNAc
Outline: as §1

[8] = biological target: GlcNAc(b1-3)Man
Outline: as §1

[9] = biological target: GlcNAc(b1-3)[GlcNAc(b1-4)][GlcNAc(b1-6)]GlcNAc
Outline: as §1

[10] = biological target: GlcNAc(b1-3)[GlcNAc(b1-6)]Gal(b1-4)GlcNAc
Outline: as §1

[11] = biological target: GlcNAc(b1-3)[GlcNAc(b1-6)]GalNAc
Outline: as §1

[12] = biological target: GlcNAc(b1-4)Gal(b1-4)GlcNAc
Outline: as §1

[13] = biological target: GlcNAc(b1-4)GlcNAc
Outline: as §1

[14] = biological target: GlcNAc(b1-4)GlcNAc(b1-4)GlcNAc
Outline: as §1

[15] = biological target: GlcNAc(b1-4)GlcNAc(b1-4)GlcNAc(b1-4)GlcNAc(b1-4)GlcNAc
Outline: as §1

[16] = biological target: GlcNAc(b1-4)GlcNAc(b1-4)GlcNAc(b1-4)GlcNAc(b1-4)GlcNAc(b1-4)GlcNAc
Outline: as §1

[17] = biological target: GlcNAc(b1-4)[GlcNAc(b1-6)]GalNAc
Outline: as §1

[18] = biological target: GlcNAc(b1-6)Gal(b1-4)GlcNAc
Outline: as §1

[19] = biological target: GlcNAc(b1-6)GalNAc
Outline: as §1

[20] = biological target: GlcNAc6S(b1-3)Gal(b1-4)GlcNAc
Outline: as §1

[21] = biological target: Kdn(a2-3)Gal(b1-3)GalNAc
Outline: as §1

[22] = biological target: Kdn(a2-3)Gal(b1-3)GlcNAc
Outline: as §1

[23] = biological target: Kdn(a2-3)Gal(b1-4)Glc
Outline: as §1

[24] = biological target: Kdn(a2-3)Gal(b1-4)GlcNAc
Outline: as §1

[25] = biological target: Kdn(a2-3)Gal(b1-4)[Fuc(a1-3)]GlcNAc
Outline: as §1

[26] = biological target: Kdn(a2-6)Gal(b1-4)GlcNAc
Outline: as §1

[27] = biological target: Man(a1-2)Man(a1-2)Man(a1-3)Man
Outline: as §1

[28] = biological target: Man(a1-2)Man(a1-2)Man(a1-6)[Man(a1-3)]Man
Outline: as §1

[29] = biological target: Man(a1-2)Man(a1-3)Man
Outline: as §1

[30] = biological target: Man(a1-2)Man(a1-3)[Man(a1-2)Man(a1-6)]Man
Outline: as §1

[31] = biological target: Man(a1-2)Man(a1-3)[Man(a1-2)Man(a1-6)]Man(a1-6)[Man(a1-2)Man(a1-2)Man(a1-3)]Man
Outline: as §1

[32] = biological target: Man(a1-2)Man(a1-3)[Man(a1-2)Man(a1-6)]Man(a1-6)[Man(a1-2)Man(a1-2)Man(a1-3)]Man(b1-4)GlcNAc(b1-4)GlcNAc
Outline: as §1

[33] = biological target: Man(a1-2)Man(a1-3)[Man(a1-6)]Man(a1-6)[Man(a1-2)Man(a1-3)]Man(b1-4)GlcNAc(b1-4)GlcNAc
Outline: as §1

[34] = biological target: Man(a1-2)Man(a1-6)[Man(a1-3)]Man(a1-6)[Man(a1-2)Man(a1-2)Man(a1-3)]Man
Outline: as §1

[35] = biological target: Man(a1-2)Man(a1-6)[Man(a1-3)]Man(a1-6)[Man(a1-2)Man(a1-2)Man(a1-3)]Man(b1-4)GlcNAc(b1-4)GlcNAc
Outline: as §1

[36] = biological target: Man(a1-3)[Man(a1-6)]Man
Outline: as §1

[37] = biological target: Man(a1-3)[Man(a1-6)]Man(a1-6)[Man(a1-2)Man(a1-3)]Man(b1-4)GlcNAc(b1-4)GlcNAc
Outline: as §1

B1: PX14375l-pdi-526-25-526 (Parabacteroides distasonis) (protein)
chain: DEEPKSTLTDVAYYKTQSQMESNVNYLYRTGAIGSYVDFGSAYIGPFASIQEELTGYFSNSYEGQEIVCRYTRELTRQQNTMQLASKMDKVWDDCYRGINVANGAIKHMPEVPMDQATADRLTAEAKFFRAFNYFYLVKTFGAVPFYTDPYELAENMELPRTETSTIYNQIESDLKDAMNVLPEATFAANGHRITKYVAAMTLTDVYMYQHKYAEAAETVRIVVNSNHKLTTNDDLAMNSAFNKLRSTDDLDEAIYAYEYDNQISPSNWLPTYAFDGDASSNGLFGTYAITQKVHGPNDRYLNIYESNDLRRQPNQFYHWTYTNPKTGKVWNSVGNAACCWYYYDEDALLTTGRGTKDWNVYRYAEALLDAAESIAQSTGVTAEAAGYLAQVKARANMEGKTAAEIASSLQSMGKQAFIEECWTERLRELPLEFKMWDMCVRTGMFPNISETTPGQVTYIPLVGAKNASGATIKESDLLWPLSVNEIQRNPSLTQNEGYSAK
glycan array binding signal (z-score) [1]: -0.081 | glycan array binding signal (z-score) [2]: -0.332 | glycan array binding signal (z-score) [3]: -0.189 | glycan array binding signal (z-score) [4]: -0.344 | glycan array binding signal (z-score) [5]: -0.282 | glycan array binding signal (z-score) [6]: -0.209 | glycan array binding signal (z-score) [7]: -0.354 | glycan array binding signal (z-score) [8]: -0.338 | glycan array binding signal (z-score) [9]: -0.141 | glycan array binding signal (z-score) [10]: -0.345 | glycan array binding signal (z-score) [11]: -0.1 | glycan array binding signal (z-score) [12]: -0.049 | glycan array binding signal (z-score) [13]: -0.176 | glycan array binding signal (z-score) [14]: -0.432 | glycan array binding signal (z-score) [15]: -0.095 | glycan array binding signal (z-score) [16]: -0.298 | glycan array binding signal (z-score) [17]: -0.36 | glycan array binding signal (z-score) [18]: -0.373 | glycan array binding signal (z-score) [19]: -0.307 | glycan array binding signal (z-score) [20]: 0.044 | glycan array binding signal (z-score) [21]: -0.227 | glycan array binding signal (z-score) [22]: -0.366 | glycan array binding signal (z-score) [23]: 0.066 | glycan array binding signal (z-score) [24]: -0.11 | glycan array binding signal (z-score) [25]: -0.415 | glycan array binding signal (z-score) [26]: -0.31 | glycan array binding signal (z-score) [27]: -0.307 | glycan array binding signal (z-score) [28]: -0.337 | glycan array binding signal (z-score) [29]: -0.453 | glycan array binding signal (z-score) [30]: -0.022 | glycan array binding signal (z-score) [31]: 0.029 | glycan array binding signal (z-score) [32]: -0.138 | glycan array binding signal (z-score) [33]: -0.236 | glycan array binding signal (z-score) [34]: -0.308 | glycan array binding signal (z-score) [35]: -0.378 | glycan array binding signal (z-score) [36]: -0.327 | glycan array binding signal (z-score) [37]: -0.44
